In the supplement of paper PMC9151546:
Most values come without repeats; read them as rough.

Legend:
[1] = tested on: CHO-K1; experiment: micronucleus frequency (% of nucleated events); higher = more micronuclei (genotoxic)
[2] = tested on: CHO-K1; experiment: hypodiploid nuclei frequency (% of nucleated events); higher = more hypodiploid events (aneugenic)
[3] = tested on: CHO-K1; experiment: relative survival (nuclei to bead ratio vs DMSO control) (% of vehicle control); higher = more surviving cells
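Wherever hypodiploid nuclei frequency (% of nucleated events) is given: hypodiploid nuclei gated on a flow cytometer with 488 nm excitation after SYTOX Green staining, cultures at 37 °C, positive controls vinblastine without S9 and cyclophosphamide with S9.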
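Wherever micronucleus frequency (% of nucleated events) is given: cells lysed with nuclei stained by SYTOX Green, then micronucleus-gated events counted against nucleated events by flow cytometry with 488 nm excitation.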
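Wherever relative survival (nuclei to bead ratio vs DMSO control) is given: Lysed-cell nuclei stained with SYTOX Green and counted against counting beads by flow cytometry at 488 nm excitation, with vinblastine (no S9) and cyclophosphamide (plus S9) as positive controls.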

c1cc2ccc3cccc4ccc(c1)c2c34 [Pyrene]
Settings | hypodiploid nuclei frequency, [2] [%] | micronucleus frequency, [1] [%] | relative survival, [3]
concentration: 4.5 (µM), S9 metabolic activation: with S9, exposure time: 3-4 hours | 0.24 | 1.6 | 184
concentration: 4.5 (µM), S9 metabolic activation: without S9, exposure time: 24 hours | 0.38 | 2.4 | 135
concentration: 5.63 (µM), S9 metabolic activation: with S9, exposure time: 3-4 hours | 0.26 | 1.68 | 126
concentration: 5.63 (µM), S9 metabolic activation: without S9, exposure time: 24 hours | 0.42 | 1.78 | 120
concentration: 7.04 (µM), S9 metabolic activation: with S9, exposure time: 3-4 hours | 0.2 | 1.72 | 133
concentration: 7.04 (µM), S9 metabolic activation: without S9, exposure time: 24 hours | 0.38 | 2.08 | 121
concentration: 8.8 (µM), S9 metabolic activation: with S9, exposure time: 3-4 hours | 0.32 | 1.76 | 113
concentration: 8.8 (µM), S9 metabolic activation: without S9, exposure time: 24 hours | 0.32 | 1.48 | 124
concentration: 11 (µM), S9 metabolic activation: with S9, exposure time: 3-4 hours | 0.28 | 2.22 | 122
concentration: 11 (µM), S9 metabolic activation: without S9, exposure time: 24 hours | 0.44 | 2.42 | 115
concentration: 13.7 (µM), S9 metabolic activation: with S9, exposure time: 3-4 hours | 0.28 | 1.46 | 102
concentration: 13.7 (µM), S9 metabolic activation: without S9, exposure time: 24 hours | 0.58 | 1.84 | 143
concentration: 17.2 (µM), S9 metabolic activation: with S9, exposure time: 3-4 hours | 0.38 | 2.04 | 102
concentration: 17.2 (µM), S9 metabolic activation: without S9, exposure time: 24 hours | 0.46 | 1.78 | 126
concentration: 21.5 (µM), S9 metabolic activation: with S9, exposure time: 3-4 hours | 0.24 | 1.48 | 103
concentration: 21.5 (µM), S9 metabolic activation: without S9, exposure time: 24 hours | 0.42 | 1.9 | 101
concentration: 26.8 (µM), S9 metabolic activation: with S9, exposure time: 3-4 hours | 0.34 | 1.68 | 91.3
concentration: 26.8 (µM), S9 metabolic activation: without S9, exposure time: 24 hours | 0.48 | 1.68 | 103
concentration: 33.6 (µM), S9 metabolic activation: with S9, exposure time: 3-4 hours | 0.32 | 2.04 | 89.8
concentration: 33.6 (µM), S9 metabolic activation: without S9, exposure time: 24 hours | 0.4 | 1.28 | 114
concentration: 41.9 (µM), S9 metabolic activation: with S9, exposure time: 3-4 hours | 0.38 | 2.02 | 81.5
concentration: 41.9 (µM), S9 metabolic activation: without S9, exposure time: 24 hours | 0.42 | 1.74 | 99.3
concentration: 52.4 (µM), S9 metabolic activation: with S9, exposure time: 3-4 hours | 0.14 | 1.66 | 60.7
concentration: 52.4 (µM), S9 metabolic activation: without S9, exposure time: 24 hours | 0.3 | 1.34 | 106
concentration: 65.5 (µM), S9 metabolic activation: with S9, exposure time: 3-4 hours | 0.22 | 2.12 | 72.8
concentration: 65.5 (µM), S9 metabolic activation: without S9, exposure time: 24 hours | 0.64 | 1.9 | 109
concentration: 81.9 (µM), S9 metabolic activation: with S9, exposure time: 3-4 hours | 0.34 | 2.18 | 55.5
concentration: 81.9 (µM), S9 metabolic activation: without S9, exposure time: 24 hours | 0.62 | 1.74 | 112
concentration: 102 (µM), S9 metabolic activation: with S9, exposure time: 3-4 hours | 0.32 | 2.3 | 67.8
concentration: 102 (µM), S9 metabolic activation: without S9, exposure time: 24 hours | 0.54 | 2.1 | 88.6
concentration: 128 (µM), S9 metabolic activation: with S9, exposure time: 3-4 hours | 0.48 | 3.24 | 55.5
concentration: 128 (µM), S9 metabolic activation: without S9, exposure time: 24 hours | 0.7 | 2.04 | 102
concentration: 160 (µM), S9 metabolic activation: with S9, exposure time: 3-4 hours | 0.5 | 3.98 | 54.4
concentration: 160 (µM), S9 metabolic activation: without S9, exposure time: 24 hours | 0.84 | 1.46 | 110
concentration: 200 (µM), S9 metabolic activation: with S9, exposure time: 3-4 hours | 0.24 | 2.54 | 59.8
concentration: 200 (µM), S9 metabolic activation: without S9, exposure time: 24 hours | 0.7 | 1.54 | 77.4

C=CCc1ccc(O)c(OC)c1 [Eugenol]
Settings | hypodiploid nuclei frequency, [2] [%] | micronucleus frequency, [1] [%] | relative survival, [3]
concentration: 4.5 (µM), S9 metabolic activation: with S9, exposure time: 3-4 hours | 0.26 | 1.56 | 99.6
concentration: 4.5 (µM), S9 metabolic activation: without S9, exposure time: 24 hours | 0.6 | 3.06 | 98.8
concentration: 5.63 (µM), S9 metabolic activation: with S9, exposure time: 3-4 hours | 0.26 | 1.42 | 108
concentration: 5.63 (µM), S9 metabolic activation: without S9, exposure time: 24 hours | 0.46 | 2.64 | 111
concentration: 7.04 (µM), S9 metabolic activation: with S9, exposure time: 3-4 hours | 0.14 | 1.08 | 121
concentration: 7.04 (µM), S9 metabolic activation: without S9, exposure time: 24 hours | 0.5 | 2.5 | 99.8
concentration: 8.8 (µM), S9 metabolic activation: with S9, exposure time: 3-4 hours | 0.22 | 1.32 | 141
concentration: 8.8 (µM), S9 metabolic activation: without S9, exposure time: 24 hours | 0.26 | 1.96 | 97.9
concentration: 11 (µM), S9 metabolic activation: with S9, exposure time: 3-4 hours | 0.18 | 1.04 | 111
concentration: 11 (µM), S9 metabolic activation: without S9, exposure time: 24 hours | 0.62 | 2.7 | 96.1
concentration: 13.7 (µM), S9 metabolic activation: with S9, exposure time: 3-4 hours | 0.1 | 1.08 | 106
concentration: 13.7 (µM), S9 metabolic activation: without S9, exposure time: 24 hours | 0.3 | 1.88 | 90.7
concentration: 17.2 (µM), S9 metabolic activation: with S9, exposure time: 3-4 hours | 0.32 | 2.2 | 109
concentration: 17.2 (µM), S9 metabolic activation: without S9, exposure time: 24 hours | 0.42 | 1.9 | 78.2
concentration: 21.5 (µM), S9 metabolic activation: with S9, exposure time: 3-4 hours | 0.28 | 1.72 | 132
concentration: 21.5 (µM), S9 metabolic activation: without S9, exposure time: 24 hours | 0.36 | 1.92 | 82.2
concentration: 26.8 (µM), S9 metabolic activation: with S9, exposure time: 3-4 hours | 0.26 | 1.52 | 76.3
concentration: 26.8 (µM), S9 metabolic activation: without S9, exposure time: 24 hours | 0.36 | 1.24 | 84.2
concentration: 33.6 (µM), S9 metabolic activation: with S9, exposure time: 3-4 hours | 0.2 | 1.42 | 99.9
concentration: 33.6 (µM), S9 metabolic activation: without S9, exposure time: 24 hours | 0.46 | 1.56 | 84.5
concentration: 41.9 (µM), S9 metabolic activation: with S9, exposure time: 3-4 hours | 0.12 | 0.98 | 58.8
concentration: 41.9 (µM), S9 metabolic activation: without S9, exposure time: 24 hours | 0.54 | 1.84 | 61.8
concentration: 52.4 (µM), S9 metabolic activation: with S9, exposure time: 3-4 hours | 0.42 | 1.83 | 48.1
concentration: 52.4 (µM), S9 metabolic activation: without S9, exposure time: 24 hours | 0.64 | 2.16 | 82.8
concentration: 65.5 (µM), S9 metabolic activation: with S9, exposure time: 3-4 hours | – | – | 33.1
concentration: 65.5 (µM), S9 metabolic activation: without S9, exposure time: 24 hours | 0.6 | 2.48 | 73.3
concentration: 81.9 (µM), S9 metabolic activation: with S9, exposure time: 3-4 hours | – | – | 18.5
concentration: 81.9 (µM), S9 metabolic activation: without S9, exposure time: 24 hours | 0.68 | 2.44 | 72.8
concentration: 102 (µM), S9 metabolic activation: with S9, exposure time: 3-4 hours | – | – | 18.7
concentration: 102 (µM), S9 metabolic activation: without S9, exposure time: 24 hours | 0.6 | 3.06 | 74
concentration: 128 (µM), S9 metabolic activation: with S9, exposure time: 3-4 hours | – | – | 6.23
concentration: 128 (µM), S9 metabolic activation: without S9, exposure time: 24 hours | 1.08 | 3.52 | 59.4
concentration: 160 (µM), S9 metabolic activation: with S9, exposure time: 3-4 hours | – | – | 2.9
concentration: 160 (µM), S9 metabolic activation: without S9, exposure time: 24 hours | 0.9 | 2.82 | 96.6
concentration: 200 (µM), S9 metabolic activation: with S9, exposure time: 3-4 hours | – | – | 0.59
concentration: 200 (µM), S9 metabolic activation: without S9, exposure time: 24 hours | 1.48 | 4.5 | 79.7

CCCN(CCC)N=O [N-Nitrosodipropylamine]
Settings | hypodiploid nuclei frequency, [2] [%] | micronucleus frequency, [1] [%] | relative survival, [3]
concentration: 4.5 (µM), S9 metabolic activation: with S9, exposure time: 3-4 hours | 0.12 | 0.9 | 95.9
concentration: 4.5 (µM), S9 metabolic activation: without S9, exposure time: 24 hours | 0.44 | 1.24 | 136
concentration: 5.63 (µM), S9 metabolic activation: with S9, exposure time: 3-4 hours | 0.3 | 1.2 | 110
concentration: 5.63 (µM), S9 metabolic activation: without S9, exposure time: 24 hours | 0.6 | 2.22 | 125
concentration: 7.04 (µM), S9 metabolic activation: with S9, exposure time: 3-4 hours | 0.28 | 1.48 | 146
concentration: 7.04 (µM), S9 metabolic activation: without S9, exposure time: 24 hours | 0.56 | 1.28 | 107
concentration: 8.8 (µM), S9 metabolic activation: with S9, exposure time: 3-4 hours | 0.26 | 1 | 127
concentration: 8.8 (µM), S9 metabolic activation: without S9, exposure time: 24 hours | 0.62 | 1.4 | 116
concentration: 11 (µM), S9 metabolic activation: with S9, exposure time: 3-4 hours | 0.18 | 1.04 | 101
concentration: 11 (µM), S9 metabolic activation: without S9, exposure time: 24 hours | 0.44 | 1.4 | 113
concentration: 13.7 (µM), S9 metabolic activation: with S9, exposure time: 3-4 hours | 0.32 | 1.24 | 121
concentration: 13.7 (µM), S9 metabolic activation: without S9, exposure time: 24 hours | 0.54 | 1.74 | 116
concentration: 17.2 (µM), S9 metabolic activation: with S9, exposure time: 3-4 hours | 0.2 | 1.36 | 112
concentration: 17.2 (µM), S9 metabolic activation: without S9, exposure time: 24 hours | 0.4 | 1.68 | 111
concentration: 21.5 (µM), S9 metabolic activation: with S9, exposure time: 3-4 hours | 0.06 | 1.2 | 132
concentration: 21.5 (µM), S9 metabolic activation: without S9, exposure time: 24 hours | 0.68 | 1.64 | 111
concentration: 26.8 (µM), S9 metabolic activation: with S9, exposure time: 3-4 hours | 0.24 | 1.2 | 89.2
concentration: 26.8 (µM), S9 metabolic activation: without S9, exposure time: 24 hours | 0.7 | 3 | 95.4
concentration: 33.6 (µM), S9 metabolic activation: with S9, exposure time: 3-4 hours | 0.26 | 1.2 | 103
concentration: 33.6 (µM), S9 metabolic activation: without S9, exposure time: 24 hours | 0.38 | 1.82 | 84.2
concentration: 41.9 (µM), S9 metabolic activation: with S9, exposure time: 3-4 hours | 0.38 | 1.2 | 87.2
concentration: 41.9 (µM), S9 metabolic activation: without S9, exposure time: 24 hours | 0.68 | 1.88 | 91.5
concentration: 52.4 (µM), S9 metabolic activation: with S9, exposure time: 3-4 hours | 0.18 | 1.7 | 112
concentration: 52.4 (µM), S9 metabolic activation: without S9, exposure time: 24 hours | 0.54 | 1.58 | 76
concentration: 65.5 (µM), S9 metabolic activation: with S9, exposure time: 3-4 hours | 0.2 | 1.8 | 107
concentration: 65.5 (µM), S9 metabolic activation: without S9, exposure time: 24 hours | 0.58 | 1.52 | 106
concentration: 81.9 (µM), S9 metabolic activation: with S9, exposure time: 3-4 hours | 0.38 | 1.38 | 106
concentration: 81.9 (µM), S9 metabolic activation: without S9, exposure time: 24 hours | 0.52 | 1.72 | 78
concentration: 102 (µM), S9 metabolic activation: with S9, exposure time: 3-4 hours | 0.38 | 1.4 | 107
concentration: 102 (µM), S9 metabolic activation: without S9, exposure time: 24 hours | 0.58 | 1.86 | 79.4
concentration: 128 (µM), S9 metabolic activation: with S9, exposure time: 3-4 hours | 0.36 | 1.58 | 106
concentration: 128 (µM), S9 metabolic activation: without S9, exposure time: 24 hours | 0.94 | 1.96 | 85.4
concentration: 160 (µM), S9 metabolic activation: with S9, exposure time: 3-4 hours | 0.28 | 1.58 | 107
concentration: 160 (µM), S9 metabolic activation: without S9, exposure time: 24 hours | 0.82 | 1.54 | 76.7
concentration: 200 (µM), S9 metabolic activation: with S9, exposure time: 3-4 hours | 0.24 | 1.54 | 103
concentration: 200 (µM), S9 metabolic activation: without S9, exposure time: 24 hours | 0.58 | 1.72 | 79
